Source: article PMC3681934
These are yes or no findings as the source states them, for the method shown. Binding seen in cells or lysates may run through a third protein. Some results given as binding are weak or reduced against the parent protein; the word gives no strength. Tags and fused reporters may be left off the sequences shown.

Key:
[1] = molecular target: T1, MBP-fusion protein with the TIR domain of IL1RAPL1 (mouse) (UniProt P59823); experiment: pull-down; lysates of transfected HEK 293T cells incubated with amylose resins coupled to purified MBP-fusion proteins of IL1RAPL1 domains; immunoblotting with anti-FLAG or anti-Myc antibody; only the target purified
T1 sequence: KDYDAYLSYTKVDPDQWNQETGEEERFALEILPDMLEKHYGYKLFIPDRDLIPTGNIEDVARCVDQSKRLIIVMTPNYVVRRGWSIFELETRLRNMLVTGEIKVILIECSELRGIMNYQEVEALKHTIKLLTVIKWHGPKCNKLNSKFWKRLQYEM

YFP-IL1RAPL1 (mouse) = molecular target: T2, YFP-IL1RAPL1 (mouse) (UniProt P59823); experiment: co-IP; HEK 293T cells co-transfected; lysed in TNE buffer (50 mM Tris-HCl pH 7.5, 1% Nonidet P-40, 150 mM NaCl, 5 mM EDTA); immunoprecipitation with anti-GFP or anti-FLAG antibody, western blotting with anti-FLAG or anti-Myc antibody
T2 sequence: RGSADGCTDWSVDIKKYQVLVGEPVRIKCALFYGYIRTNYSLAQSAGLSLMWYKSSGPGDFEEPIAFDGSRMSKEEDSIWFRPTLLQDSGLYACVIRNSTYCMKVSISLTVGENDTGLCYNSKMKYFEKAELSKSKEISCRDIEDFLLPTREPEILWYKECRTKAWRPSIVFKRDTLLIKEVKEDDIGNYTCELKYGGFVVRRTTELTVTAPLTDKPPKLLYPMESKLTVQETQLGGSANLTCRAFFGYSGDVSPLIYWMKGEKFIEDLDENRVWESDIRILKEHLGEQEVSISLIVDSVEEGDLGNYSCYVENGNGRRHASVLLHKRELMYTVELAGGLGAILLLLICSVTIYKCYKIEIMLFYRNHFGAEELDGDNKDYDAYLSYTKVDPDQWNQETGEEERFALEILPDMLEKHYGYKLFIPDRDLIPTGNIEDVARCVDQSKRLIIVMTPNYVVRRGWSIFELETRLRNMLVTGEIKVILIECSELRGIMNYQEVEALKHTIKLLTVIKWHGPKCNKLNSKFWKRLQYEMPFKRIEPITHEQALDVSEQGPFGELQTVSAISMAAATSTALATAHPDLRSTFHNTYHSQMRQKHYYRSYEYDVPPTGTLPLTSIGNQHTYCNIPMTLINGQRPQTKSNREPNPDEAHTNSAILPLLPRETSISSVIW

binding [1]: binds
binding (YFP-IL1RAPL1 (mouse)): binds
B1: FLAG-Mcf2l (protein, UniProt Q64096 1-1149)
chain: MSDCWCFIFCKEHVRSNPLSPQHDGASREEADHQVDVSDGIRLVPDKAEATAATASDEIMHQDIVPLCAADIQEQLKKRFAYLSGGRGQDGSPVITFPDYPAFSEIPDKEFQNVMTYLTSIPSLQDAGIGFILVIDRRQDKWTSVKASVLRIAASFPANLQLVLVLRPTGFFQRTLSDIAFKFNRDEFKMKVPVMMLSSVPELHGYIDKSQLTEDLGGTLDYCHSRWLCHRTAIESFALMVKQTAQMLQAFGTELAETELPNDVQSTSLVLSAHTEKKAKVKEDLQLALKEGNSILESLREPLAESAAHSVNQDQLDNQATVQRLLAQLNETEAAFDEFWAKHQQKLEQCLQLRHFEQGFREVKTTLDSMSQKIAAFTDVGNSLAHVQHLLKDLTAFEEKSSVAVDKARALSLEGQQLIENRHYAVDSIHPKCEELQHLCDHFASEVTRRRGLLSKSLELHSLLETSMKWSDEGIFLLASQPVDKCQSQDGAEAALQEIEKFLETGAENKIQELNEIYKEYECILNQDLLEHVQKVFQKQESTEEMFHRRQASLKKLAAKQTRPVQPVAPRPEALTKSPSPSPGSWRSSENSSSEGNALRRGPYRRAKSEMSEPRQGRTSSTGEEEESLAILRRHVMNELLDTERAYVEELLCVLEGYAAEMDNPLMAHLISTGLQNKKNILFGNMEEIYHFHNRNIPAGLESCIDCPELVGRCFLERMEEFQIYEKYCQNKPRSESLWRQCSDCPFFQECQKKLDHKLSLDSYLLKPVQRITKYQLLLKEMLKYSKHCEGAEDLQEALSSILGILKAVNDSMHLIAITGYDGNLGDLGKLLMQGSFSVWTDHKKGHTKVKELARFKPMQRHLFLHEKAVLFCKKREENGEGYEKAPSYSYKQSLNMTAVGITENVKGDTKKFEIWYNAREEVYIIQAPTPEIKAAWVNEIRKVLTSQLQACREASQHRALEQSHSLPLPTPSSTSPTKGNTRNVKKLEDRKTDPLSLEGYVSSSLPKPPEKGKGWSKTSHSLEAPEEDGGWSSAEELINSSDAEEDGGVGPKKLVPGKYTVVMDDEKGGPDTLAMRSGDMVEVVEEGAEGLWYVRDLTSSKEGWVPASSLSTLLGKSSSAQCLSSSGKIHCARQLCPEPAEILSPEPV
